Out of some 310,000 compounds screened, about 14,000 (4.5%) showed an effect of 50% or more. The effect is printed as a negative number. Some of the results follow.
Target: human ether-à-go-go-related gene (hERG) potassium channel (human, UniProt Q12809)
Experiment: primary screen, population patch clamp on CHO cells stably expressing hERG
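Also: peak tail current of the secondary pulse compared with the same well before compound.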

human ether-à-go-go-related gene (hERG) potassium channel, sequence (Q12809 whole entry, looked up): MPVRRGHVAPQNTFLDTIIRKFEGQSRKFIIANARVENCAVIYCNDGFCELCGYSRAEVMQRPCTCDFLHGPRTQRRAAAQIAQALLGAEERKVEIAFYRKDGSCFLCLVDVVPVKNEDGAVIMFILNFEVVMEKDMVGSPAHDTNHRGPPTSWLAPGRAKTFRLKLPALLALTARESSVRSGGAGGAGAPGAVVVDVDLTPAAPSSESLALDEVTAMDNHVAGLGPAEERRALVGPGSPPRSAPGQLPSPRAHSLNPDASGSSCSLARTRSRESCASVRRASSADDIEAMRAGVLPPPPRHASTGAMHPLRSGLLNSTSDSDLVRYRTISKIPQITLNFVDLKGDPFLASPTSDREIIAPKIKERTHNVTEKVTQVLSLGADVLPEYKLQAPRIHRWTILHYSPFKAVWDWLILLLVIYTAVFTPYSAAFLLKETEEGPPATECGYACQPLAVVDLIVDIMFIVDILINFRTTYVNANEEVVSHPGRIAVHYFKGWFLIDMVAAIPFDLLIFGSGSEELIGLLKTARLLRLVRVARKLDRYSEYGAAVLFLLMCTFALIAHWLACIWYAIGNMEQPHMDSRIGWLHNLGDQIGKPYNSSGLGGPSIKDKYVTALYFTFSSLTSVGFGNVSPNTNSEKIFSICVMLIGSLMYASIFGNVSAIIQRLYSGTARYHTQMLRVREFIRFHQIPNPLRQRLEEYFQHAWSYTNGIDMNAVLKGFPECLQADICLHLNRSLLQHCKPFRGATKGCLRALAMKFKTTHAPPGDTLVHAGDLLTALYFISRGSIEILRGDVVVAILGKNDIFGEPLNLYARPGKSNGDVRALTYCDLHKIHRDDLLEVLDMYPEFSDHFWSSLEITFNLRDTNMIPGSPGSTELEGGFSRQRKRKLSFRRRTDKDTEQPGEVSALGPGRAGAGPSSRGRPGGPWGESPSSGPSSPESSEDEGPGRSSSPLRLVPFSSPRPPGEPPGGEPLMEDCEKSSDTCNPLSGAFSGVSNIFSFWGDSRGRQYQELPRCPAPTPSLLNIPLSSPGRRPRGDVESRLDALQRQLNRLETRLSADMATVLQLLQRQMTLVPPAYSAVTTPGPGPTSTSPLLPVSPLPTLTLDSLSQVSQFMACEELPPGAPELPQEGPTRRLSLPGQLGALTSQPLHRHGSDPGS

| Structure (SMILES) | hERG current change (%, negative = inhibition) at 10uM [%] |
| --- | --- |
| O=C(NC(Cc1c[nH]c2ccccc12)C(=O)O)c1ccccc1 (centres unmarked) | 1.22 |
| CCCN(c1ccc(OCC)cc1)c1ncnc2nc[nH]c12 | -19 |
| O=C(COC(=O)CNC(=O)c1ccccc1)Nc1ccc(S(=O)(=O)N2CCCC2)cc1 | -9.13 |
| Cc1ccc(S(=O)(=O)N2CCOCC2)cc1NC(=O)CSc1nc(N)cc(=O)[nH]1 | 19 |
| O=C1CN(C(=O)NCC(=O)N[C@H](C(=O)O)c2ccccc2)c2ccccc2N1 | -1.99 |
| CCOC(=O)C1=C(C)NC(C)=C(C(=O)OCC)C1c1cc2ccc(C)cc2[nH]c1=O | 4.64 |
| OCC1CCCN(Cc2cn(Cc3ccccc3)nc2-c2cc3ccccc3o2)C1 (centres unmarked) | -41.9 |
| COc1ccnc2c1c(=O)n(Cc1c(F)cccc1Cl)c(=O)n2C | -34.8 |
| CCC(O)CNc1nc(SC)nc2sc3c(c12)CCN(C)C3 (centres unmarked) | 0.847 |
| Clc1ccccc1C1CC(c2ccccc2)Nc2ncnn21 (centres unmarked) | -2.22 |
| C=CCN(CC=C)C(=O)c1c(OC)cccc1OC | -7.4 |
| C/C(=N\NC(=O)c1ccc(CSc2nncn2C)cc1)c1ccc(Cl)cc1 | -17.8 |
| O=C1NC(Cc2c[nH]c3ccccc23)C(=O)N1CCOc1ccccc1 (centres unmarked) | -22.7 |
| O=S(=O)(c1ccccc1)N1N=C(c2cccs2)CC1c1ccc(Br)cc1 (centres unmarked) | 13.1 |
| Cc1ccc2nc(N(CCCN(C)C)C(=O)c3ccc(S(=O)(=O)N4CCOCC4)cc3)sc2c1.Cl | -33.9 |
| NNC(=O)[C@@H]1C[C@@H]1c1ccccc1 | -24.6 |
| COc1ccc(CN(C(=O)c2ccc(CN3CCOCC3)o2)C(C(=O)NCC2CCCO2)c2ccc(F)cc2)cc1 (centres unmarked) | -4.38 |
| Cc1ccc(C(=O)c2ccccc2C(=O)OCC(=O)N2CC(C)CC(C)C2)cc1 (centres unmarked) | -46.7 |
| COc1cccc(-c2ccc(SCc3ccccn3)nn2)c1 | 3.16 |

| Structure (SMILES) | hERG current change (%, negative = inhibition) at 10uM [%] |
| --- | --- |
| CCOC(=O)C(NC(=O)N1CCCCC1)(c1ccccc1)C(F)(F)F (centres unmarked) | -0.306 |
| O=C(c1cc(COc2ccc(F)cc2Cl)on1)N1CCCC(OCc2cccnc2)C1 (centres unmarked) | -53.5 |
| COC(=O)c1ccc(C(=O)NC2CCCc3c2cnn3-c2ccccc2F)nc1 (centres unmarked) | 3.02 |
| CCOC(=O)C1CCN(S(=O)(=O)c2cc3c4c(c2)C(C)C(=O)N4CCC3)CC1 (centres unmarked) | -7.08 |
| O=C(COc1ccccc1F)N1CCCc2ccccc21 | 4.15 |
| C#CCNC(=O)C1CCN(c2cc(C)nc(-c3ccccc3)n2)CC1 | -40.7 |
| CCOC(=O)CSc1cc(=O)n(C)c2cc(Cl)ccc12 | -1.12 |
| C[C@H](NC(N)=O)C(=O)Nc1ccc(OCc2ccccc2)cc1 | 6.97 |
| COc1cc(NC(=O)C2=CC(c3ccco3)=NS(=O)(=O)N2C)cc(OC)c1OC | 11.2 |
| CN(C(=O)c1cccs1)c1ccc(OCC(=O)N2CCC(C(N)=O)CC2)cc1 | 30 |
| CC(C)OC(=O)c1cccc(C(=O)Nc2cccc(NC(=O)c3cccc(C(=O)OC(C)C)n3)n2)n1 | 23.6 |
| Cc1noc(C)c1S(=O)(=O)N(CC(=O)Nc1ccc2c(c1)OCCO2)c1ccc(C(C)C)cc1 | 3.42 |
| Cc1ccc(-c2nn(CC(=O)NCC3CCCO3)c(=O)c3ccccc23)cc1 (centres unmarked) | -30.5 |
| C/C(=N\Nc1cc(N2CCOCC2)ncn1)c1cccc([N+](=O)[O-])c1 | 4.5 |
| CCOC(=O)CC1=NN(c2ccccc2)C(=O)C1 | 19.4 |
| O=C(Cn1ccc(NC(=O)OCc2ccccc2)nc1=O)NCC1CCCO1 (centres unmarked) | 16.7 |
| CCc1ccc(C(=O)Nn2cnc3ccccc3c2=O)cc1 | -12.1 |
| Cc1nn(C)c(Cl)c1S(=O)(=O)N1CCC(CO)(CCc2ccccc2)CC1 | -21.1 |
| CC1=CC(c2ccc(Cl)cc2)n2nc(N3C(=O)CCC3=O)nc2N1.O=C(O)CCC(=O)O (centres unmarked) | -6.98 |

| Structure (SMILES) | hERG current change (%, negative = inhibition) at 10uM [%] |
| --- | --- |
| C=CCN(CC=C)CCOc1ccccc1F.O=C(O)C(=O)O | -21.4 |
| CCOC(=O)C1=C(C)N(CCCC(=O)O)C(=O)NC1c1cccs1 (centres unmarked) | 30.9 |
| CC(=O)Nc1ccccc1C(F)(F)F | 21.2 |
| CCC(=O)Nc1ccc(Cl)c(NC(=S)NC(=O)c2ccco2)c1 | 15.5 |
| O=C(CCc1nc2ccccc2c(=O)[nH]1)NNC(=O)c1ccc(F)cc1 | -5.41 |
| COc1ccc(Cl)cc1NC(=O)CN1CCc2ccccc2C1 | 12.8 |
| CCc1cc(=O)oc2c3c(cc(OCC(=O)NCCCn4ccnc4)c12)OC(C)(C)CC3 | -51.1 |
| CC(C)NS(=O)(=O)c1cc(C(=O)O)ccc1Cl | -4.59 |
| Cc1ccc(NC(=O)Cn2cc(C(=O)C3CC3)c3ccccc32)c(C)c1 | 7.84 |
| O=C(NCCC1CCCCN1S(=O)(=O)c1cccs1)C(=O)Nc1cccc(F)c1 (centres unmarked) | -50.1 |
| Cc1occc(=O)c1OC(=O)Nc1ccccc1 | 4.17 |
| CC1Cc2cc(S(=O)(=O)N3CCN(C)CC3)ccc2N1C(=O)C1CC1 (centres unmarked) | 19.6 |
| CC1CN(C(=S)NC(=O)c2ccc(Cl)cc2)CC(C)O1 (centres unmarked) | 21.6 |
| O=S(=O)(c1ccc2c(c1)OCCO2)N1CCC(n2cnc3cc(F)ccc32)CC1 | -62.4 |
| CCC(C)C(NC(=O)C1CCC(C)CC1)C(=O)NC(CCSC)C(=O)OC (centres unmarked) | -2.17 |
| CNC(=O)c1ccc(OC2CSC2)cc1 | 19 |
| CC(OC(=O)Cn1cnc2c1c(=O)n(C)c(=O)n2C)C(=O)c1ccccc1 (centres unmarked) | -2.37 |
| Brc1cnc(N2CCOCC2)nc1N1CCCCC1 | -16.3 |
